# Data published in PubChem BioAssay AID1240 (Sanford-Burnham Center for Chemical Genomics, 2008).
# Out of some 50,000 compounds screened, about 800 (1.6%) showed an effect of 50% or more. Some of the results follow.
# Target: Bcl-2-like protein 10 (Homo sapiens) (UniProt Q9HD36)
# Assay: TR3 peptide-Bcl-B binding displacers, biochemical primary FP assay, phenotype converters (AID 1240);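 further: 0% = Bcl-B with tracer peptide and DMSO and 100% = tracer peptide lacking Bcl-B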
# Conditions: GST-Bcl-B / FITC-TR3 peptide fluorescence polarization; stronger effect = higher value; compound at 3.75 mg/L
# Chain of UniProt Q9HD36 (Q9HD36 whole entry, looked up): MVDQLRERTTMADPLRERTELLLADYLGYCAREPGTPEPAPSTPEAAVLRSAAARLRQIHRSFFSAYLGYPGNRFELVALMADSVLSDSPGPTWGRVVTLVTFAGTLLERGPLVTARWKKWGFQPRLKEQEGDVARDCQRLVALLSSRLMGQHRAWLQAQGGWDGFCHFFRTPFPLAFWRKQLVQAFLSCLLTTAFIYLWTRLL
row,Structure (SMILES),displacement
1,CCOCCOC(=O)c1ccc(NC(=O)c2ccc(C)cc2)cc1,7.4%
2,CC(C)(C)P(=O)(c1ccc(C(=O)O)cc1)C(C)(C)C,0.4%
3,Cc1cccc(/N=C/c2ccccc2O)n1,-2.3%
4,O=S(=O)(NCc1cccnc1)c1ccc(Br)cc1Br,10%
5,Cc1c(C(=O)Nc2ccc(N(C)C)cc2)cccc1[N+](=O)[O-],2.1%
6,Cc1cccc(OCC(=O)Nc2ccc(S(=O)(=O)Nc3nccs3)cc2)c1C,3%
7,CCCCCCNC(=O)c1[nH]ncc1[N+](=O)[O-],-0.4%
8,CCOc1ccc(N(CC(=O)NCC(C)C)S(C)(=O)=O)cc1,-0.2%
9,CC(=O)C1=C(O)CC(C)(C)CC1=Nc1ccc(N)cc1,-15.8%
10,COc1ccc(N(C)CN2C(=O)CSC2=O)cc1,8%
11,CCOc1cc(OCC)cc(C(=O)Nc2ccc([N+](=O)[O-])cc2)c1,13.1%
12,C(=N\c1nc2ccccc2n1CCN1CCOCC1)/c1cccs1,13.1%
13,O=CNC(NC(=S)Nc1ccc(F)cc1)C(Cl)(Cl)Cl (stereo unspecified),-1.1%
14,CC(=O)c1cccc(NC(=O)c2cnn3c(-c4ccccc4)cc(-c4ccccc4)nc23)c1,11.4%
15,O=C(COc1cccc2ccccc12)NCc1ccncc1,-3.1%
16,CCOC(=O)C1=C(O)/C(=C/c2cccc(O)c2)SC1=Nc1ccc([N+](=O)[O-])cc1,-1.1%
17,O=C(O)CCCC(=O)NCCC(c1ccccc1)c1ccccc1,4.4%
18,Cc1cccc(N2C(=O)/C(=C/c3cccc(O)c3)SC2=S)c1,7.5%
19,COC(=O)C1=C(C)N(CC(C)C)C(=O)/C1=C\c1cccc([N+](=O)[O-])c1,9.6%
20,O=C1/C(=C/c2ccc3c(c2)OCO3)SC(=S)N1Cc1ccco1,94.5%
21,Cc1cc(NC(=O)c2ccc(-c3cccc([N+](=O)[O-])c3)o2)ccc1NC(=O)c1ccco1,-0.3%
22,Cc1oc2ccc(OCc3ccccc3F)cc2c1C(=O)O,12.9%
23,COc1ccc(/C=C2\SC(N3CCCC3)=NC2=O)cc1OC,5.8%
24,CC(C)c1ccc(/C=C(\NC(=O)c2ccccc2)C(=O)NCCN2CCOCC2)cc1,10.3%

row,Structure (SMILES),displacement
1,CCC1=NN2C(=N)/C(=C/c3ccc4c(c3)OCO4)C(=O)N=C2S1,3%
2,CCOc1cccc(/C=C2/C(=O)NN(c3cc(Cl)cc(Cl)c3)C2=O)c1O,13.5%
3,COc1cc(/C=C2\SC(=S)N(c3cccc(C(=O)O)c3)C2=O)ccc1O,-67.8%
4,CCOC(=O)c1c(NC(=O)C2CC3CCC2C3)sc2c1CCC(C)C2 (stereo unspecified),2%
5,Cc1nc(-c2ccccc2)nc2[nH]ccc(=O)c12,11.9%
6,CC1=C(C(=O)OC(C)C)C(c2cccc(I)c2)C2=C(CCCC2=O)N1 (stereo unspecified),4.2%
7,C/C(=N\Nc1cc(-c2ccccc2)nc(C)n1)c1cccc(N)c1,-9%
8,COc1cccc(NC(=O)c2ccc(C(=O)Nc3cccc(OC)c3)nc2)c1,5.8%
9,COc1c(Cl)cc(C(=O)Nc2cccc(S(N)(=O)=O)c2)cc1Cl,-2.2%
10,CCOC(=O)c1c(C)[nH]c(C=C2C(=O)CC(C)(C)CC2=O)c1O,17.3%
11,O=C(CC1S/C(=N\N=C\c2cccc(O)c2)NC1=O)Nc1ccccc1C(F)(F)F (stereo unspecified),10.1%
12,Cc1cccc(OCCn2c(C)nc3ccccc32)c1,-12.2%
13,CCOc1cc(C=C2C(=O)NC(=O)NC2=O)ccc1OCc1ccc(Cl)cc1,9.6%
14,CCCCOc1ccc(NC(=O)c2cccc(C(F)(F)F)c2)cc1,-7.6%
15,Fc1ccc(NC(=S)Nc2ccc(I)cc2)cc1,-10.1%
16,CCOC(=O)c1ccccc1NC(=O)CN(c1ccccc1CC)S(C)(=O)=O,-7.4%
17,CC1CC(N(C(=O)c2cccs2)c2ccccc2)c2ccccc2N1 (stereo unspecified),18.1%
18,N/C(=N\c1nc(C(F)(F)F)cc(=O)[nH]1)Nc1ccc(Oc2ccccc2)cc1,6.9%
19,CN1C(=O)/C(=C/c2cc([N+](=O)[O-])ccc2O)SC1=S,-14.4%
20,Cc1ccc(C(=O)Nc2ccccn2)cc1,4.6%
21,Cc1cc(C)nc(SCC(=O)N2c3ccccc3CCc3ccccc32)n1,0.8%
22,COc1ccccc1NC(=O)c1ccc2c3c(cccc13)CC2,-2.4%
23,CCOC(=O)C1CCN(C(=S)NC23CC4CC(CC(C4)C2)C3)CC1,-1.9%
24,Cc1ccc2cccc(SCC(=O)N3CCOCC3)c2n1,-4.9%

row,Structure (SMILES),displacement
1,O=C(NCc1ccco1)c1ccc(Br)cc1,11.1%
2,Cc1ccccc1OCC(=O)NC1C2CC3CC(C2)CC1C3 (stereo unspecified),-9.2%
3,O=[N+]([O-])c1cccc(S(=O)(=O)Nc2cccc(I)c2)c1,2.5%
4,CCCCC(=O)N1c2ccccc2C(N(C(=O)Cc2ccc(F)cc2)c2ccccc2)CC1C (stereo unspecified),-7.2%
5,Cc1ccc(N2C(=O)NC(=O)/C(=C\c3ccc(-c4ccc([N+](=O)[O-])cc4Cl)o3)C2=O)cc1,87.2%
6,CCn1c(=O)c(C(=O)Nc2ccccc2Br)c(O)c2ccccc21,8.3%
7,O=C(CCC1CCCC1)N1CCN(S(=O)(=O)c2ccccc2)CC1,1.3%
8,COc1cc(OC)cc(C(=O)Nc2cc(C34CC5CC(CC(C5)C3)C4)ccc2C)c1,-3.8%
9,COc1ccc(OC)c(C(=O)c2ccccc2)c1,1.7%
10,Cc1ccc(OCC(=O)O/N=C(\N)c2ccncc2)c(Br)c1,-0.1%
11,CC(=O)n1cnc(-c2ccc(N)c([N+](=O)[O-])c2)c1,4%
12,CCOC(=O)c1cccc(N/C(N)=N/c2nc(C(F)(F)F)cc(=O)[nH]2)c1,1.4%
13,O=C(Nc1c[nH]c(=O)[nH]c1=O)c1ccc([N+](=O)[O-])cc1,6.3%
14,COc1ccc(C2Nc3ccc(Cl)cc3C(c3ccccc3)O2)cc1 (stereo unspecified),13.5%
15,CC(=O)NC1=NC(=O)/C(=C/c2cc(C)n(-c3cccc(C(=O)O)c3)c2C)S1,-66.7%
16,COc1ccc(C(=O)Nc2ccccc2C(=O)NCCCn2ccnc2)cc1,11.9%
17,O=C(Nc1nc(-c2ccc(Cl)cc2)cs1)c1cccs1,12%
18,O=C(COc1ccc(Cl)cc1Br)N/N=C/c1ccc([N+](=O)[O-])s1,4.7%
19,CCOc1ccc(C(=O)Nc2cc(Cl)ccc2OC)cc1OCC,1.6%
20,CCc1ccc(NC(=S)NC(=O)c2ccco2)cc1,12.6%
21,CCC1=NN(C(=O)c2cccc(C)c2O)C(O)(c2ccc(Br)cc2)C1 (stereo unspecified),9.8%
22,CCCCCNC(=O)c1ccc(C(=O)NCCCCC)cc1,15.9%
23,O=C(NCc1ccc2c(c1)OCO2)C(c1ccccc1)c1ccccc1,14.6%
